Literature values as cited in patent US8894782B2 (priority 2002, dated 2014).

Conditions: animal

Structure (SMILES) | carcinogenicity
CN(C)N [unsymmetrical dimethylhydrazine, 1,1-dimethylhydrazine] | confirmed animal carcinogens
CNN [monomethylhydrazine] | confirmed animal carcinogens
